# The other results are listed elsewhere or left out.
# B1: Banana lectin (Musa acuminata) (protein)
# chain: MNGAIKVGAHGGNGGSAFDMGPAYRIISVKIFSGDVVDGVDVTFTYYGKTETRHYGGSGGTPHEIVLQEGEYLVGMAGEVANYHGAVVLGKLGFSTNKKAYGPFGNTGGTPFSLPIAAGKISGFFGRGGKFLDAIGVYLEPLEHHHHHH
# Legend:
# Experiment in all cases: glycan array binding signal (z-score within array); higher = stronger binding
# Conditions in all cases: glycan notation: IUPAC condensed, linker removed; mutation: W10H
# GalNAc(b1-4)GlcNAc = target: GalNAc(b1-4)GlcNAc
# How it was run: (§1)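 The binding signal is a Z-score computed within each array and averaged over linkers. Arrays of the same protein sequence at different concentrations or buffers were also averaged together. Data originate from 3228 arrays in the Consortium for Functional Glycomics database, kept only where the protein sequence was available.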
# [1] = target: GalNAc(b1-4)GlcNAc(b1-2)Man
# How it was run: as §1
# [2] = target: GalNAc(b1-4)GlcNAc(b1-2)Man(a1-3)[GalNAc(b1-4)GlcNAc(b1-2)Man(a1-6)]Man(b1-4)GlcNAc(b1-4)GlcNAc
# How it was run: as §1
# [3] = target: GalNAc(b1-4)GlcNAc(b1-3)GalNAc(b1-4)GlcNAc
# How it was run: as §1
# GalNAc(b1-4)GlcNAc6S = target: GalNAc(b1-4)GlcNAc6S
# How it was run: as §1
# GalNAc(b1-6)GalNAc = target: GalNAc(b1-6)GalNAc
# How it was run: as §1
# GalNAc3S(b1-4)GlcNAc = target: GalNAc3S(b1-4)GlcNAc
# How it was run: as §1
# GalNAc3S(b1-4)GlcNAc3S = target: GalNAc3S(b1-4)GlcNAc3S
# How it was run: as §1
# [4] = target: GalNAc3S(b1-4)[Fuc(a1-3)]GlcNAc
# How it was run: as §1
# GalNAc4S6S(b1-4)GlcNAc = target: GalNAc4S6S(b1-4)GlcNAc
# How it was run: as §1
# GalNAc6S(b1-4)GlcNAc = target: GalNAc6S(b1-4)GlcNAc
# How it was run: as §1
# Glc(a1-4)Glc = target: Glc(a1-4)Glc
# How it was run: as §1
# [5] = target: Glc(a1-4)Glc(a1-4)Glc(a1-4)Glc
# How it was run: as §1
# Glc(a1-6)Glc(a1-6)Glc = target: Glc(a1-6)Glc(a1-6)Glc
# How it was run: as §1
# [6] = target: Glc(a1-6)Glc(a1-6)Glc(a1-6)Glc
# How it was run: as §1
# Glc(b1-4)Glc = target: Glc(b1-4)Glc
# How it was run: as §1
# Glc(b1-6)Glc = target: Glc(b1-6)Glc
# How it was run: as §1
# GlcA(b1-3)Gal = target: GlcA(b1-3)Gal
# How it was run: as §1
# GlcA(b1-3)GlcNAc = target: GlcA(b1-3)GlcNAc
# How it was run: as §1
# GlcA(b1-6)Gal = target: GlcA(b1-6)Gal
# How it was run: as §1
# [7] = target: GlcA3S(b1-3)Gal(b1-4)GlcNAc(b1-2)Man
# How it was run: as §1
# [8] = target: GlcA3S(b1-3)Gal(b1-4)GlcNAc(b1-3)Gal(b1-4)Glc
# How it was run: as §1
# [9] = target: GlcNAc(a1-3)Gal(b1-4)GlcNAc
# How it was run: as §1
# [10] = target: GlcNAc(a1-4)Gal(b1-3)GlcNAc
# How it was run: as §1
# [11] = target: GlcNAc(a1-4)Gal(b1-4)GalNAc
# How it was run: as §1
# [12] = target: GlcNAc(a1-4)Gal(b1-4)GlcNAc
# How it was run: as §1
# [13] = target: GlcNAc(a1-4)Gal(b1-4)GlcNAc(b1-3)Gal(b1-4)Glc
# How it was run: as §1
# [14] = target: GlcNAc(a1-4)Gal(b1-4)GlcNAc(b1-3)Gal(b1-4)GlcNAc
# How it was run: as §1
# [15] = target: GlcNAc(a1-4)Gal(b1-4)GlcNAc(b1-3)Gal(b1-4)GlcNAc(b1-3)Gal(b1-4)GlcNAc
# How it was run: as §1
# [16] = target: GlcNAc(a1-4)Gal(b1-4)GlcNAc(b1-3)Gal(b1-4)[Fuc(a1-3)]GlcNAc(b1-3)Gal(b1-4)[Fuc(a1-3)]GlcNAc
# How it was run: as §1
# [17] = target: GlcNAc(a1-6)Gal(b1-4)GlcNAc
# How it was run: as §1
# [18] = target: GlcNAc(b1-2)Gal(b1-3)GalNAc
# How it was run: as §1
# [19] = target: GlcNAc(b1-2)Man(a1-3)[GlcNAc(b1-2)Man(a1-6)]Man(b1-4)GlcNAc(b1-4)GlcNAc
# How it was run: as §1
# [20] = target: GlcNAc(b1-2)Man(a1-3)[GlcNAc(b1-2)Man(a1-6)]Man(b1-4)GlcNAc(b1-4)[Fuc(a1-6)]GlcNAc
# How it was run: as §1
# [21] = target: GlcNAc(b1-2)Man(a1-3)[GlcNAc(b1-4)][GlcNAc(b1-2)Man(a1-6)]Man(b1-4)GlcNAc(b1-4)GlcNAc
# How it was run: as §1
# [22] = target: GlcNAc(b1-2)Man(a1-3)[GlcNAc(b1-4)][GlcNAc(b1-2)Man(a1-6)]Man(b1-4)GlcNAc(b1-4)[Fuc(a1-6)]GlcNAc
# How it was run: as §1
# [23] = target: GlcNAc(b1-2)[GlcNAc(b1-4)]Man(a1-3)[GlcNAc(b1-2)Man(a1-6)]Man(b1-4)GlcNAc(b1-4)GlcNAc
# How it was run: as §1
# [24] = target: GlcNAc(b1-2)[GlcNAc(b1-4)]Man(a1-3)[GlcNAc(b1-4)][GlcNAc(b1-2)Man(a1-6)]Man(b1-4)GlcNAc(b1-4)GlcNAc
# How it was run: as §1
# [25] = target: GlcNAc(b1-2)[GlcNAc(b1-4)]Man(a1-3)[GlcNAc(b1-4)][GlcNAc(b1-2)[GlcNAc(b1-6)]Man(a1-6)]Man(b1-4)GlcNAc(b1-4)GlcNAc
# How it was run: as §1
# [26] = target: GlcNAc(b1-2)[GlcNAc(b1-4)]Man(a1-3)[GlcNAc(b1-4)][GlcNAc(b1-2)[GlcNAc(b1-6)]Man(a1-6)]Man(b1-4)GlcNAc(b1-4)[Fuc(a1-6)]GlcNAc
# How it was run: as §1
# [27] = target: GlcNAc(b1-2)[GlcNAc(b1-6)]Man(a1-6)[GlcNAc(b1-2)Man(a1-3)]Man(b1-4)GlcNAc(b1-4)GlcNAc
# How it was run: as §1
# [28] = target: GlcNAc(b1-2)[GlcNAc(b1-6)]Man(a1-6)[GlcNAc(b1-2)Man(a1-3)]Man(b1-4)GlcNAc(b1-4)[Fuc(a1-6)]GlcNAc
# How it was run: as §1
# [29] = target: GlcNAc(b1-2)[GlcNAc(b1-6)]Man(a1-6)[GlcNAc(b1-4)][GlcNAc(b1-2)Man(a1-3)]Man(b1-4)GlcNAc(b1-4)GlcNAc
# How it was run: as §1
# GlcNAc(b1-3)Fuc = target: GlcNAc(b1-3)Fuc
# How it was run: as §1
# GlcNAc(b1-3)Gal = target: GlcNAc(b1-3)Gal
# How it was run: as §1
binder,measurement,setting,value
B1,glycan array binding signal (z-score),GalNAc(b1-4)GlcNAc,-0.182
same,glycan array binding signal (z-score),[1],-0.17
same,glycan array binding signal (z-score),[2],-0.17
same,glycan array binding signal (z-score),[3],-0.131
same,glycan array binding signal (z-score),GalNAc(b1-4)GlcNAc6S,-0.166
same,glycan array binding signal (z-score),GalNAc(b1-6)GalNAc,-0.176
same,glycan array binding signal (z-score),GalNAc3S(b1-4)GlcNAc,-0.166
same,glycan array binding signal (z-score),GalNAc3S(b1-4)GlcNAc3S,-0.165
same,glycan array binding signal (z-score),[4],-0.178
same,glycan array binding signal (z-score),GalNAc4S6S(b1-4)GlcNAc,-0.127
same,glycan array binding signal (z-score),GalNAc6S(b1-4)GlcNAc,-0.186
same,glycan array binding signal (z-score),Glc(a1-4)Glc,-0.167
same,glycan array binding signal (z-score),[5],-0.153
same,glycan array binding signal (z-score),Glc(a1-6)Glc(a1-6)Glc,-0.096
same,glycan array binding signal (z-score),[6],-0.15
same,glycan array binding signal (z-score),Glc(b1-4)Glc,-0.183
same,glycan array binding signal (z-score),Glc(b1-6)Glc,-0.191
same,glycan array binding signal (z-score),GlcA(b1-3)Gal,-0.16
same,glycan array binding signal (z-score),GlcA(b1-3)GlcNAc,-0.185
same,glycan array binding signal (z-score),GlcA(b1-6)Gal,-0.185
same,glycan array binding signal (z-score),[7],-0.173
same,glycan array binding signal (z-score),[8],-0.164
same,glycan array binding signal (z-score),[9],0.751
same,glycan array binding signal (z-score),[10],0.088
same,glycan array binding signal (z-score),[11],-0.155
same,glycan array binding signal (z-score),[12],0.004
same,glycan array binding signal (z-score),[13],-0.141
same,glycan array binding signal (z-score),[14],0.135
same,glycan array binding signal (z-score),[15],0.146
same,glycan array binding signal (z-score),[16],-0.081
same,glycan array binding signal (z-score),[17],-0.135
same,glycan array binding signal (z-score),[18],-0.178
same,glycan array binding signal (z-score),[19],0.116
same,glycan array binding signal (z-score),[20],-0.148
same,glycan array binding signal (z-score),[21],-0.166
same,glycan array binding signal (z-score),[22],-0.179
same,glycan array binding signal (z-score),[23],-0.142
same,glycan array binding signal (z-score),[24],-0.131
same,glycan array binding signal (z-score),[25],-0.16
same,glycan array binding signal (z-score),[26],-0.167
same,glycan array binding signal (z-score),[27],-0.181
same,glycan array binding signal (z-score),[28],-0.153
same,glycan array binding signal (z-score),[29],-0.185
same,glycan array binding signal (z-score),GlcNAc(b1-3)Fuc,-0.161
same,glycan array binding signal (z-score),GlcNAc(b1-3)Gal,-0.197

# Reference: the supplement of paper PMC8728848
